This is one part of the list. Antibody binding of pooled human sera (four to six donors per pool; dilution not stated) to peptides of the Trypanosoma cruzi antigen TSSA on microarrays. Quantile-normalised fluorescence in arbitrary units, mean of duplicate arrays; higher = more binding. No active / inactive call. The uninfected pools are read here as the healthy donors of the same country. The strongest signals lie near the top of the scale (about 60,000).

The subject of this test is pooled sera of chronic Chagas disease patients, Argentina. Briefly: antibody binding signal (normalised fluorescence) (arbitrary fluorescence units); higher = stronger serum antibody binding to peptide. How it is done: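 Microarray of 15-residue peptides over residues 30-55 of Trypanosoma cruzi TSSAII, each with 1 to 10 substitutions at naturally variable positions, probed with one serum pool per country.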
The sequence SGKDKKTAAGEAPSQ gave an antibody binding signal of 623. Under KENKPAAGETPSPSG stands 276; under GTDNKPATGGTPSPP, 1520; under DKKAAAGGTPSPPGA, 388.

DNKTAAGEAPSPSGA: the antibody binding signal is 228.

On to TISTPPSGTENKPAT, for which the antibody binding signal was 46000. Under KKPATGETPSPPGAS stands 9900; under TDKKAAAGGAPSQPG, 1610. In the case of TDKKPAAGGTPSQPG it was 380. In the case of SGTDNKTATGEAPSP it was 13100; in that of SGTEKKTATGGAPSQ, 4630. SGKDNKAAAGETPSP registered an antibody binding signal of 798. In the case of DNKPATGGTPSQPGA it was 442; in that of KEKKPATGETPSQSG, 25700; in that of TPPSGTDNKTAAGGT, 46000. In the case of PSGKDNKTATGETPS it was 1760; in that of PPSGKEKKPAAGETP, 1180. In the case of TENKTATGGAPSQSG it was 17900; in that of GTENKAATGEAPSQP, 41400; in that of STPPSGKDNKAATGG, 39100. Consider KPATGEAPSPSGASS, for which the antibody binding signal stood at 47900. Sequence STPPSGTDNKPATGE displayed an antibody binding signal of 42600. SGTDKKAAAGGAPSQ yielded an antibody binding signal of 302. As to PPSGKDNKTAAGGTP, the antibody binding signal worked out at 2170. In the case of PSGKEKKPATGGAPS it was 13700; in that of KAATGEAPSQSGASS, 24000. In the case of TPPSGKDNKTATGEA it was 2930; in that of SGTEKKPATGETPSQ, 33000. In the case of PPSGTDKKPAAGEAP it was 17400; in that of GKDNKAATGETPSQS, 8940. In the case of SGTDNKTAAGEAPSQ, the antibody binding signal worked out at 300.

For KDNKTATGETPSPPG, the antibody binding signal came to 746. Under SGKDNKPAAGETPSQ stands 1050; under SGTENKTATGGAPSQ, 30700. In the case of PPSGKEKKPATGGTP it was 1570; in that of TENKPATGETPSQPG, 44100. In the case of SGKENKTAAGEAPSQ it was 3770. Consider GKDKKAAAGGAPSPP, for which the antibody binding signal turned out to be 178.

In turn, KDNKTAAGETPSQSG displayed an antibody binding signal of 847. In the case of TENKTAAGEAPSQPG it was 22300.

For the origin of these results see the supplement of paper PMC10441789.
